Data taken from PubChem BioAssay AID485294 (National Center for Advancing Translational Sciences (NCATS), 2010).
Among all 370,000 compounds or so, about 150 (0.041%) were called active. Inconclusive means that the source gave no clear call. Such entries were picked first, then a sample of the others. Calls follow the shape of the dose curve; as a rule, active = well fitted inhibition curve with a large enough effect; inconclusive = small, poorly fitted or top-dose-only effect; inactive = flat fitted curve, though single readings scatter. Potencies of inconclusive entries are left out as doubtful fits.

Molecular target: Beta-lactamase (Escherichia coli (strain K12)) (UniProt P00811)
Test: qHTS Inhibitors of AmpC Beta-Lactamase (assay with detergent); also: nearly all actives have a fitted effect of over 25% in size
Conditions: AmpC hydrolysis of nitrocefin, absorbance 480 nm, 0.01% Triton; series mostly up to 114 µM
Method in brief: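 20 mM phosphate pH 7.0 + 0.01% (detergent screen) or 0.0001% Triton X-100; 5.3 nM AmpC reagent; cpd preinc 15 min RT; nitrocefin (800 uM stock) to start; A480 q20 s × 4 min; Activity was normalised to no-enzyme and no-compound control wells.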
Potency is read from the fitted curve at half-maximal effect; tags tell the direction and shape of the fitted curve.

Sequence of UniProt P00811 (P00811 whole entry, looked up): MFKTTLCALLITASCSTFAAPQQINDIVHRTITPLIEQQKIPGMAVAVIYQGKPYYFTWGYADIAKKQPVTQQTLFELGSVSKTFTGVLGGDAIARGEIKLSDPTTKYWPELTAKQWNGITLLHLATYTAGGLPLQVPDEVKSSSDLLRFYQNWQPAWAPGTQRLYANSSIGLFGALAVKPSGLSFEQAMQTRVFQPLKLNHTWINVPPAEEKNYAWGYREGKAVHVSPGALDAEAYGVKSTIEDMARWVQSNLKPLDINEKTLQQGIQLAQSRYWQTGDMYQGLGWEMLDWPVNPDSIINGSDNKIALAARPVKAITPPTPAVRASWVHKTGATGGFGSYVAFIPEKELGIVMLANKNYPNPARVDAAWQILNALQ

Structure (SMILES)	Potency
COc1ccc(-c2cn[nH]c2-c2ccc(OCC(=O)NN)cc2O)cc1OC	inconclusive [inhibitor, single point]
Cc1c(OCC(=O)Nc2cccnc2)ccc2c3c(c(=O)oc12)CCC3	inactive
CCCc1[nH]nc2c1C(c1ccccc1OCC)C(C#N)=C(N)O2 (stereo not given)	inconclusive [inhibitor, full curve, poor fit]
Cc1ccccc1C(=O)Nc1nnc(S(=O)(=O)N(C)Cc2ccccc2)s1	inactive
CN(C)S(=O)(=O)N1CCC(Oc2ccc(C(=O)NC3CCCCC3)cc2)CC1	inactive
CCc1ccccc1NC(=O)CSc1nc(-c2cccc(Cl)c2)nc2c1Cc1c(CO)cnc(C)c1O2	inactive
Cc1ccc(S(=O)(=O)N2CCC(=O)N(C(CO)C(C)C)CC2)cc1 (stereo not given)	inactive
O=C(C=C=Nc1ccccc1)C(=O)N=C=Cc1ccccc1	inactive
CCOc1ccc(CN2CCc3nc(N4CCN(c5ccccc5OC)CC4)ncc3C2)cc1OC	inactive
COc1ccc(Br)cc1-c1nc2c(c(=O)[nH]c(=O)n2Cc2ccccc2)n1C	inconclusive [inhibitor, full curve, poor fit]
O=C(NCc1cccnc1)C(=O)NCC1OCCN1S(=O)(=O)c1ccc(Cl)cc1 (stereo not given)	inconclusive [inhibitor, partial curve, poor fit]
CCCCCc1ccc(-c2cn(CCc3c[nH]c4ccccc34)nn2)cc1	inconclusive [inhibitor, full curve, poor fit]
Nc1nc(CN2CCC(Cc3ccccc3)CC2)nc(Nc2ccccc2)n1	inactive
Clc1ccc(-c2nnc(N3CCOCC3)o2)cc1	inactive
Cc1cc(C(=O)COc2cccnc2[N+](=O)[O-])c(C)n1-c1ccccc1F	inconclusive [inhibitor, partial curve]
CCCCCOc1ccc(Br)cc1/C(C)=N/NC1=NCCN1	inactive
O=C(CCC(=O)N1CCN(c2ccc(F)cc2)CC1)c1ccc(F)cc1	inactive
COC(=O)c1ccc(N2CCCCC2)c(NS(=O)(=O)c2ccc(C)cc2)c1	inactive
COc1ccc(-c2ccc(CCC(=O)O)n2CC(C)C)cc1	inactive
Cc1cccc(-n2c(SCC(=O)Nc3ncc(Cl)cc3Cl)nc3ccccc32)c1	inactive
COc1ccc(NC(=O)CN(C)C(=O)c2sc3ccccc3c2Cl)cc1	inconclusive [inhibitor, partial curve]
Cc1ccc(N2CC(c3nc4ccccc4n3C)CC2=O)cc1C (stereo not given)	inconclusive [inhibitor, partial curve]
Cc1cnc(NC(=O)CCNC(=O)c2ccccc2Cl)s1	inactive
Cc1ccc(O)c(Nc2nc(-c3ccccc3)nc3ccccc23)c1	inconclusive [inhibitor, full curve, poor fit]
On1c(-c2ccccc2Cl)nc2ccccc21	inconclusive [inhibitor, full curve, poor fit]

Structure (SMILES)	Potency
COc1ccc2nc(/N=C/c3cccc(OC)c3O)sc2c1	inactive
CCOc1ccc(CC(=O)NCCS(=O)(=O)N2CCN(c3ccccc3)CC2)cc1	inconclusive [inhibitor, full curve]
COC1=CC(=O)OC(/C=C/c2ccccc2)C1 (stereo not given)	inactive
O=C(CCCn1c(=O)c2cccn2c2ccccc21)Nc1cc(C(F)(F)F)ccc1Cl	inactive
CS(=O)(=O)N(CC(=O)N1CCCC1)Cc1ccc(F)cc1	inactive
Cc1ccccc1COc1ccc(-c2nnn(CC(=O)O)n2)cc1	inconclusive [inhibitor, full curve, poor fit]
COc1ccccc1CNC(=O)C1CCCN(S(=O)(=O)c2ccc3c(c2)oc(=O)n3C)C1 (stereo not given)	inactive
CCc1cc2cc(C)ccc2nc1SCC(=O)Nc1cc(C)on1	inconclusive [inhibitor, single point]
COc1ccc(-c2cc(C(=O)Nc3c(C(=O)c4ccc(C)cc4)oc4ccccc34)no2)cc1	inactive
O=C(Cn1c(=O)n(Cc2nc(-c3ccccc3)no2)c(=O)c2ccccc21)Nc1cccc(C(F)(F)F)c1	inactive
COC(=O)c1c(NC(=O)c2ccco2)sc(C)c1C	inconclusive [inhibitor, full curve, poor fit]
Cc1nc(CC(=O)NNS(=O)(=O)c2ccc3ccccc3c2)cs1	inconclusive [inhibitor, partial curve, poor fit]
CC(C)c1onc(C(=O)Nc2cccc(Cl)c2)c1[N+](=O)[O-]	inactive
O=[N+]([O-])c1ccccc1CNCCCCO	inactive
Cc1cc(C)n2nc(CC#N)c(C#N)c2n1	inconclusive [inhibitor, full curve]
Cc1cccc2sc(N(Cc3cccnc3)C(=O)CCc3ccccc3)nc12	inactive
COc1ccc(C(=O)N2N=C3CC(C)(C)OCC3C2c2ccccc2)cc1 (stereo not given)	inconclusive [inhibitor, single point]
CC1CC(C)CN(C(=O)c2ccc(C(=O)c3ccccc3)cc2)C1 (stereo not given)	inconclusive [inhibitor, full curve, poor fit]
COc1ccc(C(=O)CSc2nnc(-c3cccnc3)n2Cc2ccco2)cc1	inconclusive [inhibitor, partial curve]
Cc1cccc2c3nc4ccccc4nc3n(C)c12	inconclusive [inhibitor, full curve, poor fit]
Cc1oc(-c2ccc(Cl)cc2)nc1CS(=O)CC(=O)NCCN1CCCC1 (stereo not given)	inactive
Cc1ccc(-n2nnnc2SCC(=O)NC2CCS(=O)(=O)C2)c(C)c1 (stereo not given)	inconclusive [inhibitor, full curve]
Cn1ncc([N+](=O)[O-])c1C(=O)Nc1ccccc1Cl	inconclusive [inhibitor, single point]
Cc1c(NC(=O)/C(C#N)=C/c2ccc(-c3ccc(Cl)c(Cl)c3)o2)c(=O)n(-c2ccccc2)n1C	inconclusive [inhibitor, single point]
COC(=O)c1ccc(NC(=O)c2ccc3nccnc3c2)cc1	inactive

Structure (SMILES)	Potency
O=C1CCC(=O)N1c1cccc(-c2nc3ccccc3o2)c1	inconclusive [inhibitor, full curve, poor fit]
Cc1cc(NC(=O)CCSc2ccccc2)no1	inactive
CCCCc1ccc(-n2nc3cc(C)c(NC(=O)c4ccc(C#N)cc4F)cc3n2)cc1	inactive
CN(c1ccc2nc3ccccc3c(=O)n2n1)C1CCCCC1	inconclusive [inhibitor, single point]
CCc1nn(CC(=O)NCCc2ccc(OC)cc2OC)c(=O)c2cc3occc3n12	inconclusive [inhibitor, partial curve, poor fit]
N#C/C(=C\c1ccc(OCc2ccccc2)cc1)C(=O)Nc1ccc(C(=O)O)cc1	inconclusive [inhibitor, partial curve, poor fit]
Cc1cc(C)nc(-n2nc(C)cc2NC(=O)c2cccc(S(=O)(=O)N(C)C)c2)n1	inconclusive [inhibitor, full curve, poor fit]
CC(=O)Nc1ccc2c(c1)nc(CCNC(=O)c1ccccc1)n2C	inconclusive [inhibitor, full curve]
COc1cc(NC(=O)CN2C(=O)NC(c3ccccc3)(c3ccccc3)C2=O)c(C)cc1[N+](=O)[O-]	inconclusive [inhibitor, full curve, poor fit]
Cc1cc(C)c(S(=O)(=O)Nc2cccnc2)c(C)c1	inconclusive [inhibitor, partial curve]
O=C(N/N=C/c1ccccn1)c1ccc([N+](=O)[O-])cc1Cl	inconclusive [inhibitor, full curve, poor fit]
Cc1ccc(CNc2cnccn2)s1	inconclusive [inhibitor, full curve, poor fit]
O=C(CCN1C(=O)C2C3C=CC(C3)C2C1=O)Nc1ccccc1 (stereo not given)	inactive
O=C(CCCc1nc(-c2ccc(Cl)cc2)no1)NC1CCCCC1	inactive
COc1ccc(N2CC(C(=O)Nc3ccc([N+](=O)[O-])cc3Br)CC2=O)cc1 (stereo not given)	inconclusive [inhibitor, full curve, poor fit]
Cc1csc2ncnc(NCCc3ccccn3)c12	inactive
CCc1ccc(NC(=O)c2noc3c2CCC3)cc1	inactive
Oc1ccc(CN2CCN(c3ncccn3)CC2)cc1	inconclusive [inhibitor, full curve, poor fit]
Cc1nc(Nc2c(Cl)cccc2Cl)sc1C(=O)Nc1ccccc1	inactive
Cn1c(=O)c2c(ncn2CC(=O)N2CCN(c3ccc(F)cc3)CC2)n(C)c1=O	inconclusive [inhibitor, full curve, poor fit]
COc1ccc(C(=O)Nc2c(N)nc(SCC(=O)NCC3CCCO3)[nH]c2=O)cc1OC (stereo not given)	inconclusive [inhibitor, partial curve]
Cc1cccc(N2CCN(C(c3ccccc3)c3nnnn3CC3CCCO3)CC2)c1C (stereo not given)	inconclusive [inhibitor, full curve, poor fit]
CCn1c(-c2cccn(Cc3ccccc3)c2=O)n[nH]c1=S	inconclusive [inhibitor, full curve, poor fit]
CN(C)c1ccc(/C=C(\C#N)c2ccccc2)cc1	inactive
COc1cccc(C(=O)N2CCN(CCCc3ccccc3)CC2)c1OC	inactive
